Data published in the RNAGym collection of RNA variant scans (doi:10.7554/elife.90254).
Read counts are not given, so values of variants with three or more changes are uncertain.

B1: OR4K15 (parent)
chain: GUUAACGGUCAUAGGCCAUGGAAACUAGGAGCACCAUUUCGCUGCCAGUGAAGAAAUGAACAAAGAAAAUCUGGGCCAGGCAGGCAUCAAAAGAAAUAGUCUUGCGCUCAACCAGAAAGUCUGUAAUCAUUUUAAGGGUA

Variants of: B1
Assay: self-cleavage, relative activity (ratio to wild type); higher = more cleavage; in vitro, sequencing; the parent is a self-cleaving ribozyme

| Variant | self-cleavage |
| --- | --- |
| GUUAGCGGUCAUAGGCCAUGGAAACUAGGAGCACCAUUUCGCUGCCAGUGAAGAAAUGAACAAAGAAAAUCUGGGCCAGGCAGGCAUCAAGAGAAAUAGUCUUGCGCUCAACCAGAAAGUCCGUAACCAUUUUAAGGGUA | 0.43 |
| GUUAACGGUCAUAGGCCAUGGAAACUAGGAGCACCAUUUCGCUGCCAGUGAAGAAAUGAACAAAGAAAAUCUGGGCCAGGCAGGCAUCAAAAGAAAUAGUCUUGCGCUCAACCAGAAAGCCUGUAAUCACUUUAAGGGUG | 1.12 |
| GUUAGCGGUCAUAGGCCAUGGAAACUAGGAGCACCAUUUCGCUGCCAGUGAAGAAAUUAACAAUGAAAAUCUGGGCCAGGCAGGCAUCAAAAGAAAUAGUCUUGCGCUCAACCAGAAAGUCUGUAAUCAUUUUAAGGGUA | 0.76 |
| GUUAACGGUCAUAGGCCAUGGAACCUAGGAGCACCAUUUCGCUGCCAGUGAAGAAAUGAACAAAGAAAAUCUGGGCCAGGCGGGCAACGAGAGAAAUAGUCUUGCGCUCAACCAGAAAGUCUGUAAUCAUUUUAAGGGUA | 0.13 |
| GUUAACGGUCAUAGGCCAUGGAAACUAGGAGCACCAUUUCGCUGCCAGUGAAGAAAUGAACAAAGAAAAUCUGGGCCAGGCAGGCGUCAAAAGAAAUUGUCUUGCGCUCAACCAGAAAGUCUGUAAUCAUUCUAAGGGUA | 2.21 |
| GUUAACGGUCAUAGGCCAUGGAAACUAGGAGCACCAUUUCGCUGCCAGUGAAGAAAUGAACAAAGAAAAUCUGGGCCAGGCAGGCAUCAAAAGAGAUAGUCUUGCGCUCAACCAGAAAGUCUGUAAUCGUCUUGAGGGUA | 0.89 |
| GUUAACGGUCGUAGGCCAGGGAAACUAGGAGCACCAUUUCGCUGCCAGUGAAGAGAUGAACAAAGAAAAUCUGGGCCAGGCAGGCAUCAAAAGAAGUAGUCUUGCGCUCAACCAGAAAGUCUGUAAUCAUUUUAAGGGUA | 1.68 |
| GUUAACGGUCAUAGGCCAUGGAAACUAGGAGCACCAUUUCGCUGCCAGUGUAGAAAUGAACAAAGGAAAUCUGGGCCAGGCAGGCAUCAAAAGGAAUAGUCUUGCGCUCAACCAGAAAGUCUGUAGUCAUUUUAAGGGUA | 1.11 |
| GUUAACGGUCAUAGGCCAUGGAAACUAGGAGCACCAUUUCGCUGCCAGUGGAGAAGUGAACAAAGAAAAUCUGGGCCAGGCAGGCAUCAAAAGAAAUAGUCUUGCGCUCAACGAGAAAGUCUGUAGUCAUUUUAAGGGUA | 0.01 |
| GUUAACGGUCAUAGGCCAUGGAAACUAGGAGCACCAUUUCGCUGCCAGUGAAGAGAUGAACAAAGAAAAUCCGGGCCAGGCAGGCAUCAAAAGAAAUAGUCUUGCGCUCAACCAGAAAGUCUGUAAUCAUUUUAAGGGUU | 0.27 |
| GUUAACGGUCAUAGGCCAAGGAAACUAGGAGCACCAUUUCGCUGCCAGUGAAGAAAUGAACAAAGAAAACCUGGGCCAGGCAGGCAUCAAAAGAAAUAGUCUUGCGCUCAACCAGAAGGUCUGUAAUCAUUUUAAGGGUA | 0.11 |
| GUUAACGGUCAUAGGCCAUGGAAACUAGGUGCACCAUUUCGCUGCCAGUGAAGAAAUGAGCAAAGAAAACCUGGGCCAGGCAGGCAUCAAAAGGAAUAGUCUUGCGCUCAACCAGAAAGUCUGUAAUCAUUUUAAGGGUA | 0.76 |
| GUUAACGGUCAUAGGCCAUGGGAACUAGGAGCGCCAUUUCGCUGCCAGUGAAGAAAUGAACAAAGAAAAUCUGGGCCGGGCAGGCAUCAAAAGAAAUAGUCUUGCGCUCAACCAGAAAGUCUGUAAUCAUUUUAAGGGUA | 0.15 |
| GUUAACGCUCAUGGGCCAUGGAAACUAGGAGCAUCACUUCGCUGCCAGUGAAGAAAUGAACAAAGAAGACCUGGGCCAGGCAGGCAUCAAAAGGAAUAGUCUCGCGCUCAACCAGAAAGUCUGUAAUCAUUUUAAGGGUA | 0.96 |
| GCUAACGGUCAUAGGCCACGGAAACUAGGAGCACCAUUACGCUGCCAGCGAAGAAAUGAACAAAGAAAAUCUGGGCCAGGCAGGCAUCAAAAGAAAUAGUCUUGCGCUCAACCAGAAAAUCUGUAAUCAUUUUAAGGGUA | 1.36 |
| GUUAACGGUCAUAGGCCUUGGAAACUAGGAGCACCAUUUCGCUGCCAGUGAGGAAAUGAACAAAGAAAAUCUGGGCCAGGCAGGCAUCAAAAGAAAUAGUCUUGCGCCCAACCAGAAAGUCUGUAAUCAUCUUAAGGGUA | 0.02 |
| GUUAACGGUCAUAGGCCAUGGAAACAAGGAGCACCAUUUCGCUGCCAGUGAAGAAAUGAACAAAGGUAAUCCGGGCCAGGCAGGCGUCAAAAGAAAUAGUCUUGCGCUCAACCAGAAAGUCUGUAAUCAUUUUAAGGGUA | 0.31 |
| GUUAACGGUCAUAGGCCAUGGAAACUAGGAGCACCAUUUCGCUGCCAGUGAAGAAAUGAACGAAGAAAAUCUGGGCCAGGCAGGCAACAAAAGAAAUAGUCUUGCGCUCAACCAGAAAGUCUGUAGUCAUUUUAAGGGUA | 1.01 |
| GCUAACGGUCAUAGGCCAUGGAAACUAGGAGCACCACUUCGCUGCCAGUGGAGAAAUGAACAAAGAAAAUCUGGGCCAGGCAGGCAUCAAAAGAAAUAGUCUUGCGCUCAACCAGAAAGUCUGUAAUCAUUUUAAGGGUA | 0.86 |
| GUCAACGGUCGUAGGCCAUGGAAACUAGGAGCACCAUUUCGCUGCCAGUGAGGAAAUGAACAAAGAAAAUCUGGGCCAGGCAGGCAUCAAAAGAAAUAGUCUUGCGCUCAACCAGAAAGUCUGUAAUCAUUUUAAGGGUA | 0.59 |
| GUUAACGGUCAUAGGCCAUGGAAACUAGGAGCACCAUUUCGCUGCCAGUGAAGAAAUGAACAAAGAAAAUCUGGGCCAGGCAGGCAACAAAAGAAAUAGUCUUGCGCUCAACCAGAAAGUCUGUAGUCAUUUUAAAGGUA | 1.91 |

| Variant | self-cleavage |
| --- | --- |
| GUUAACGGUCAUAGGCCAUGGAAACUAGGAGCACCAUUUCGCUGCCAGUGAAGAAAUGAACAAGGAAAAUCUGGGCCGGGCAGGCAUCAAAGGAAAUAGUCUUGCGCUCAACCAGAAAGUCUGUAAUCAUUUUAAGGGUA | 0.2 |
| GUUAACGGUCAUAGGCCAUGGAAACUAGGAGCACCAUUUCGCUGCCAGUGAAGAAAUGAGCAAAGAAAAUCUGGGCCAGGCAGGCACCAAAAGAAGUAGCCUUGCGCUCAACCAGAAAGUCUGUAAUCAUCUUAAGGGUA | 2.47 |
| GUUAACGGUCAUAGGCCAUGGAAACUAGGAGCACCAUUUCGCUGCCAGUGAAGAAAUGAACAAAGAAAGUCUGGGCCAGGCAGGCAUCAAAAGAAAUAGUCUCGCGCUCAACCAGAAAGUCAGUAAUCAUUUUAAGGGUA | 1 |
| GUUAACGGUCAUAGGCCAUGGAGACUAGGUGCACCAUUUCGCUGCCAGUGAAGAAAUGAACAAAGAAAAUCUGGGCCAGGCAGGCAUCAUAAGAAAUAGUCUUGCGCUCAACCAGAAGGUCCGUAAUCAUUUUAAGGGUA | 0.75 |
| GUUAACGGUCAUGGGCCUUGGAAACUAGGGGCACCAUUUCGCUGCCAGUGAAGAAAUGAACAAAGAAAAUCUGGGCCAGGCAGGCAUCAAAAGAAAUAGUCUUGCGCUCAACCAGAAAGUCUGUAAUCAUUUUAAGGGUA | 0.11 |
| GUUAACGGACAUAGGCCAUGGAAACUAGGAGCACCAUUUCGCUGCCAGUGAAGAAAUGAACAAAGAAAAUCUGGGCCAGGCAGGCAUCAAAAGGAAUAGUCUUGCGCUCAACCAGGAAGUCUGUAAUCAUUUUAAGGGUA | 0.23 |
| GUUAACGGUCAUAGGCCAUGGAGACUAGGAGCACCGUUUCGCUGCCAGUGAAGAAAUGAACAAAGAAAAUCUGGGCCAGGCAGGCAUCAAAAGAAAUAGUCUUGCGCUCAACCAGAAAGUCUGUAGUCAUUUUAAGGGUA | 0.62 |
| GUUAACGGUCAUAGGCCAUGGAAACUAGGGGCACCAUCUCGCUGCCAGUGAAGAAAUGAACAAUGAAAAUCUGGGCCAGGCAGGCAUCAAAAGAAAUAGUCUUGCGCUCAACCAGAAAGUCUGUAAUCAUUUUAAGGGUA | 0.93 |
| GUUAACGGUCAUAGGCCAUGGAAACUAGGAGCACCAUUUCGCUGCCAGUGGAGAAAUGAACAAAGAAAAUCUGGGCCAGGCAGGCAUCGAAAGUAAUAGUCGUGCGCUCAACCAGAAAGUCUGUAAUCAUUUUAAGGGUA | 0.11 |
| GUUAACGGUCAUAGGCCAUGGAAACUAGGAGCACCAUUUCGCUGCCAGUGAAGAAAUGAACUAAGAAAACCUGGGCCAGGCAGGCAUCGAAAGAAGUAGUCUUGCGCUCAACCAGAAAGUCUGUAAUCGUUUUAAGGGUA | 0.09 |
| GUUAACGGUCAUAGGCCAUGGAAACUAGGAGCACCAUCUCGCUGCCAGUGAAGAAGUGAACAAAGAAAAUCUGGGCCAGGCAGGCGUCAAAAGAAGUAGUCUUGCGCUCAACCAGUAAGUCUGUAAUCAUUUUAAGGGUA | 0.19 |
| GUUAACGGUCAUAGGCCAUGGAAACUAGGAGCACCAUUUCGCUGCCGGUGAGGAAAUGAACAAAGAUAAUCUGGGCCAGGCAGGCAUCAAAAGAAAUAGUCUUGCGCUCAACCAGAAAGUCUGUAAUCAUUUUAAGGGUA | 1.24 |
| GUUAACGGUCAUAGGCCAUGGAAACUAGGAGCACCAUUUCGCUGCCAGUGGAGAAAUAAACAAAGAAAAUCUGGGCCAGGCAGGCAUCAAAAGAAAUAGUCUUGCGCUCAACCAGAAGGUCUGUAAUCAUUUUAAGGGUA | 0.83 |
| GUUAACGGUCAUAGGCCAUGGAAACUAGGAGCACCAUCUCACUGCCAGCGAAGAAAUGAGCAAAGAAAAUCUGGGCCAGGCAGGCAUCAAAAGAAAUAGUCUUGCGCUCAACCAGAAAGUCUGUAAUCAUUUUAAGGGUA | 0.94 |
| GUUAACGGUCAUAGGCCACGGAAACUAGGAGCACCAUUUCGCUGCCAGUGAAGAAAUGAACAAAGAAAAUCUGGGCCAGGCAGGCAUCGAAAGAAAUAGUCUUGCGCUCAACCAGAAAGUCUGUAAUCAUCUUAAGGGUA | 0.93 |
| GUUAACGGUCAUAGGCCAUGGAAACUAGGAGCACCAUUUCGCUGCCAGUGAAGAAAUGAACAAAGAAAAUCCGGGCCAGGCAGGCAUCAAAAGAAAUAUUCUUGCGCUCAACCAGGAGGUCUGUAAUCGUUUUAAGGGUA | 0 |
| GUUAACGGUCAUAGGCCAUGGAAACUAGGAGCACCAUUUCGCUGCCAGUGAAGAAAUGAACGAAGAAAAUCUGGGCCAGGCAGGCAUCAAAAGAAAUAGUCUUGUGAUCAACCAGAAAGUCUGUGAUCAUUUUAAGGGUA | 0 |
| GUUAACGGUCAUAGGCCAUGGUAGCUAGGGGCACCAUUUCGCUGCCAGUGAAGAAAUGAACAAAGAAAAUCUGGGCCAGGCAGGCAUCAAAAGAAAUAGUCUUGCGCUCAACCAGAAAGUCUGUAAUCAUUUUAAGGGUA | 1.19 |
| GUUAACGGUCAUAGGCCAUGGAGACUAGGAGCACCAUUUCGCUGCCAGUGAAGAAAUGAACAAAGAAAAUCUGGGCCAGGCAGGCAUCAAAAGAAAUAGUCUUGCGCUCAACCAGAGAGUCUGUAAUCAUCUUAAGGGUA | 2.93 |
| GUUAACGGUCAUAGGCCAUGGAAACUAGGAGCACCAUUUCGCUGGCAGUGAAGAAAUGAACAAAGAAAAUCUGGGCCAGGCAGGCAUCAAAAGAAAUAGUCUUGCGCUCAACCAGAAGGUCUGUAAUCAUUUUAAGGGUG | 1.28 |
